For assay [1], the system named is RAW-Dual. As to the kind of experiment: NF-kB SEAP reporter activity, fold change vs agonist alone; cytotoxicity flag (confluency mask): not cytotoxic; higher = enhanced NF-kB activity. An outline of the steps: (§1)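 RAW-Dual macrophages (50,000 cells/well in DMEM, 384-well plates) received 50 nL of library stock by pin tool, then a PRR agonist 1 h later, and were kept at 37 °C, 5% CO2. After 20 hours, supernatant was read for IRF by QuantiLuc luminescence and for NF-κB by QuantiBlue absorbance at 620 nm. Reporter activity is fold change over agonist-alone wells. Cytotoxic wells had IncuCyte confluency below 70% of agonist controls in both mask sets.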

The test system of assay [2] is RAW-Dual. As to the kind of experiment: NF-kB SEAP reporter activity, fold change vs agonist alone; higher = enhanced NF-kB activity. The note with it: cytotoxicity flag (confluency mask): not cytotoxic. An outline of the steps:
as §1

Where [3] appears, read: agonist: ODN 1826 (TLR9) 0.5 ug/mL.
[4] abbreviates: agonist: Pam2CSK4 (TLR2/6) 0.1 ug/mL.
The mark [5] stands for this setting: agonist: Pam3CSK4 (TLR2/1) 0.1 ug/mL.
Setting [6] is: library stock concentration (final ~1000-fold dilution): 10 mM, agonist: Imiquimod (TLR7) […].
Setting [7] is: library stock concentration (final ~1000-fold dilution): 10 mM, agonist: MPLA (TLR4) […].

Here are results for 24 molecules from the supplement of paper PMC10037445.

In all, about 2,900 compounds were measured (“NF-kB SEAP reporter activity, fold change vs agonist alone”: median about 0.99, highest 2% from about 2.6 on). The list shows a part of the results.

For `O=C(Nc1cccc(C(F)(F)F)c1)Nc1cc(S(=O)(=O)NC2CC2)ccc1-c1ccsc1` (library stock concentration (final ~1000-fold dilution): 10 mM), the “NF-kB SEAP reporter activity” value with RAW-Dual [1] (agonist: LPS (TLR4) 0.1 ug/mL) came to 2.39; in the assay on RAW-Dual [1] (setting [3]), 0.786; in the assay on RAW-Dual [1] (setting [4]), 0.284; with RAW-Dual [1] (setting [5]) it was 0.284.

Turning to `O=C(Nc1cccc(C(F)(F)F)c1)Nc1cc(S(=O)(=O)NC2CC2)ccc1-c1ccsc1`, the “NF-kB SEAP reporter activity” value in the assay with RAW-Dual [2] (setting [6]) was determined as 0.776; with RAW-Dual [2] (setting [7]), 1.6.

As for `Cl.c1ccc(CC2=NCCN2)cc1` (library stock concentration (final ~1000-fold dilution): 10 mM), the “NF-kB SEAP reporter activity” value in the assay on RAW-Dual [1] (agonist: LPS (TLR4) 0.1 ug/mL) is 1.01; in the assay with RAW-Dual [1] (setting [3]), 0.943; in the assay with RAW-Dual [1] (setting [4]) it was 1.16; with RAW-Dual [1] (setting [5]), 0.986.

Turning to `Cl.c1ccc(CC2=NCCN2)cc1`, the “NF-kB SEAP reporter activity” value with RAW-Dual [2] (setting [6]) was found to be 0.925; in the assay on RAW-Dual [2] (setting [7]) it was 1.07.

As to `CC(C(=O)O)c1ccc2c(c1)[nH]c1ccc(Cl)cc12` (configuration not stated), the “NF-kB SEAP reporter activity” value in the assay with RAW-Dual [2] (setting [6]) was found to be 0.918; in the assay on RAW-Dual [2] (setting [7]), 1.01.

As to `CC(C(=O)O)c1ccc2c(c1)[nH]c1ccc(Cl)cc12` (configuration not stated) (library stock concentration (final ~1000-fold dilution): 10 mM), the “NF-kB SEAP reporter activity” value with RAW-Dual [1] (agonist: LPS (TLR4) 0.1 ug/mL) was found to be 1.23; with RAW-Dual [1] (setting [3]) it was 0.976; in the assay on RAW-Dual [1] (setting [4]), 1.01; with RAW-Dual [1] (setting [5]), 1.16.

In the case of `CC(NC(=O)C(Cc1ccccc1)NC(=O)OCc1ccccc1)C(=O)CF` (configuration not stated), the “NF-kB SEAP reporter activity” value with RAW-Dual [2] (setting [6]) turned out to be 0.359; in the assay with RAW-Dual [2] (setting [7]), 0.984.

With `CC(NC(=O)C(Cc1ccccc1)NC(=O)OCc1ccccc1)C(=O)CF` (configuration not stated) (library stock concentration (final ~1000-fold dilution): 10 mM), the “NF-kB SEAP reporter activity” value with RAW-Dual [1] (agonist: LPS (TLR4) 0.1 ug/mL) amounted to 0.757; with RAW-Dual [1] (setting [3]), 0.63; in the assay with RAW-Dual [1] (setting [4]) it was 0.927; with RAW-Dual [1] (setting [5]), 0.807.

Turning to `CC(C)(C)NC(=O)C1CCC2C3CCC4NC(=O)C=CC4(C)C3CCC12C` (configuration not stated) (library stock concentration (final ~1000-fold dilution): 10 mM), the “NF-kB SEAP reporter activity” value in the assay on RAW-Dual [1] (agonist: LPS (TLR4) 0.1 ug/mL) was 0.988; in the assay with RAW-Dual [1] (setting [3]) it was 0.946; in the assay with RAW-Dual [1] (setting [4]), 0.943; with RAW-Dual [1] (setting [5]) it was 0.998.

In the case of `CC(C)(C)NC(=O)C1CCC2C3CCC4NC(=O)C=CC4(C)C3CCC12C` (configuration not stated), the “NF-kB SEAP reporter activity” value is 0.218 with RAW-Dual [2] (setting [6]) and 1.07 in the assay with RAW-Dual [2] (setting [7]).

As to `CCCCCCCN(CC)CCCC(O)c1ccc(NS(C)(=O)=O)cc1.CCCCCCCN(CC)CCCC(O)c1ccc(NS(C)(=O)=O)cc1.O=C(O)/C=C/C(=O)O` (configuration not stated), the “NF-kB SEAP reporter activity” value in the assay with RAW-Dual [2] (setting [6]) stood at 0.941; in the assay on RAW-Dual [2] (setting [7]) it was 0.976.

As for `CCCCCCCN(CC)CCCC(O)c1ccc(NS(C)(=O)=O)cc1.CCCCCCCN(CC)CCCC(O)c1ccc(NS(C)(=O)=O)cc1.O=C(O)/C=C/C(=O)O` (configuration not stated) (library stock concentration (final ~1000-fold dilution): 10 mM), the “NF-kB SEAP reporter activity” value in the assay with RAW-Dual [1] (agonist: LPS (TLR4) 0.1 ug/mL) worked out at 1.03; with RAW-Dual [1] (setting [3]), 0.751; with RAW-Dual [1] (setting [4]), 0.65; with RAW-Dual [1] (setting [5]), 1.05.

With `Br.NC(=O)C(c1ccccc1)(c1ccccc1)C1CCN(CCc2ccc3c(c2)CCO3)C1` (configuration not stated) (library stock concentration (final ~1000-fold dilution): 10 mM), the “NF-kB SEAP reporter activity” value with RAW-Dual [1] (agonist: LPS (TLR4) 0.1 ug/mL) amounted to 0.967; in the assay on RAW-Dual [1] (setting [3]), 0.467; with RAW-Dual [1] (setting [4]), 0.82; in the assay on RAW-Dual [1] (setting [5]), 0.919.

Take `Br.NC(=O)C(c1ccccc1)(c1ccccc1)C1CCN(CCc2ccc3c(c2)CCO3)C1` (configuration not stated): the “NF-kB SEAP reporter activity” value in the assay with RAW-Dual [2] (setting [6]) was 1.02; with RAW-Dual [2] (setting [7]), 0.984.

With `Cc1cc(O)c2c(c1)C(=O)c1cccc(O)c1C2=O`, the entries for the “NF-kB SEAP reporter activity” value in the assay with RAW-Dual [2] (setting [6]) and with RAW-Dual [2] (setting [7]) were 0.753 and 1.06, respectively.

As to `Cc1cc(O)c2c(c1)C(=O)c1cccc(O)c1C2=O` (library stock concentration (final ~1000-fold dilution): 10 mM), the “NF-kB SEAP reporter activity” value in the assay with RAW-Dual [1] (agonist: LPS (TLR4) 0.1 ug/mL) turned out to be 1.16; with RAW-Dual [1] (setting [3]), 0.905; in the assay on RAW-Dual [1] (setting [4]), 0.858; with RAW-Dual [1] (setting [5]) it was 0.921.

For the molecule `NC(=O)c1cn(Cc2c(F)cccc2F)nn1` (library stock concentration (final ~1000-fold dilution): 10 mM), the “NF-kB SEAP reporter activity” value in the assay on RAW-Dual [1] (agonist: LPS (TLR4) 0.1 ug/mL) turned out to be 0.996; with RAW-Dual [1] (setting [3]), 0.972; in the assay with RAW-Dual [1] (setting [4]), 0.98; in the assay on RAW-Dual [1] (setting [5]), 0.987.

Consider `NC(=O)c1cn(Cc2c(F)cccc2F)nn1`, for which the “NF-kB SEAP reporter activity” value is 0.877 with RAW-Dual [2] (setting [6]) and 1.05 with RAW-Dual [2] (setting [7]).

In the case of `COc1cc2c(N3CCN(C(=O)Nc4ccc(OC(C)C)cc4)CC3)ncnc2cc1OCCCN1CCCCC1`, the “NF-kB SEAP reporter activity” value in the assay with RAW-Dual [2] (library stock concentration (final ~1000-fold dilution): 2 mM, agonist: Imiquimod (TLR7) […]) was 0.836; with RAW-Dual [2] (library stock concentration (final ~1000-fold dilution): 2 mM, agonist: MPLA (TLR4) […]) it was 0.958.

As to `COc1cc2c(N3CCN(C(=O)Nc4ccc(OC(C)C)cc4)CC3)ncnc2cc1OCCCN1CCCCC1` (library stock concentration (final ~1000-fold dilution): 2 mM), the “NF-kB SEAP reporter activity” value in the assay with RAW-Dual [1] (agonist: LPS (TLR4) 0.1 ug/mL) was 1.09; in the assay on RAW-Dual [1] (setting [3]), 0.221; in the assay with RAW-Dual [1] (setting [4]), 1.08; in the assay with RAW-Dual [1] (setting [5]), 1.2.

`C=C1CCC2C(C)(CO)C(O)CCC2(C)C1C/C=C1\C=COC1=O` (configuration not stated): the “NF-kB SEAP reporter activity” value stood at 0.803 in the assay with RAW-Dual [2] (setting [6]) and 0.925 in the assay on RAW-Dual [2] (setting [7]).

`C=C1CCC2C(C)(CO)C(O)CCC2(C)C1C/C=C1\C=COC1=O` (configuration not stated) (library stock concentration (final ~1000-fold dilution): 10 mM): the “NF-kB SEAP reporter activity” value worked out at 0.786 in the assay on RAW-Dual [1] (agonist: LPS (TLR4) 0.1 ug/mL), 0.801 in the assay on RAW-Dual [1] (setting [3]), 0.692 in the assay on RAW-Dual [1] (setting [4]) and 0.833 in the assay with RAW-Dual [1] (setting [5]).

Consider `COc1ccc(C2(C#N)CCC(C(=O)O)CC2)cc1OC1CCCC1` (configuration not stated), for which the results for the “NF-kB SEAP reporter activity” value in the assay with RAW-Dual [2] (setting [6]) and in the assay with RAW-Dual [2] (setting [7]) were 1.38 and 1.11, respectively.

Consider `COc1ccc(C2(C#N)CCC(C(=O)O)CC2)cc1OC1CCCC1` (configuration not stated) (library stock concentration (final ~1000-fold dilution): 10 mM), for which the “NF-kB SEAP reporter activity” value amounted to 1.97 in the assay on RAW-Dual [1] (agonist: LPS (TLR4) 0.1 ug/mL), 1.95 in the assay with RAW-Dual [1] (setting [3]), 1.3 with RAW-Dual [1] (setting [4]) and 1.47 with RAW-Dual [1] (setting [5]).
